Data: the BET-seq Pho4 binding data (Le et al. 2018)
The other results are listed elsewhere or left out. Values were computed here from the reads of four pooled replicates and scatter widely.

Target: T1, Pho4 (S. cerevisiae) (UniProt P07270)
T1 sequence: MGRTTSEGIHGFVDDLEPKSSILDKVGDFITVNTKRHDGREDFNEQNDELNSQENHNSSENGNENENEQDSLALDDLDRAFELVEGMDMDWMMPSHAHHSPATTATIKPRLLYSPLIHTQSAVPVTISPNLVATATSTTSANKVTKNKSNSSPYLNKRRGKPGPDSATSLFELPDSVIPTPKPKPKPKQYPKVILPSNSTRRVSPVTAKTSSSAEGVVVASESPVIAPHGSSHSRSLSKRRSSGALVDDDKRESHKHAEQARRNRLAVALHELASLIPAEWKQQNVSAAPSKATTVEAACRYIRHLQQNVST
Experiment: relative binding free energy (BET-seq); higher = weaker binding
Details: reference: library average

| Sequence | relative binding free energy |
| --- | --- |
| CCTGGCACGTGTTAGG | -0.01 kcal/mol |
| GTCTGCACGTGAAATG | 0.48 kcal/mol |
| TAACGCACGTGGGGTA | -0.33 kcal/mol |
| TGGGTCACGTGAGGGA | 0.34 kcal/mol |
| GGAGGCACGTGTATAT | -0.06 kcal/mol |
| AGGGCCACGTGGGCGC | -0.25 kcal/mol |
| GTGACCACGTGGGTGT | -0.15 kcal/mol |
| GTGGGCACGTGGAGCC | -0.03 kcal/mol |
| GGGGACACGTGTCTGA | 0.03 kcal/mol |
| GCTGGCACGTGGTGGG | -0.02 kcal/mol |
| CAGGGCACGTGGATTT | -0.05 kcal/mol |
| GTTGACACGTGGAAAT | 0.28 kcal/mol |
| TGCATCACGTGGACGG | 0.29 kcal/mol |
| GGGTTCACGTGCGCGC | 0.38 kcal/mol |
| GGAGTCACGTGTAATG | 0.2 kcal/mol |
| GTGCGCACGTGGGGAC | -0.3 kcal/mol |
| ATGTTCACGTGATCTG | 0.36 kcal/mol |
| CAATACACGTGTATGG | 0.22 kcal/mol |
| TTTAGCACGTGGTTGT | -0.05 kcal/mol |
| TGTAGCACGTGTTGTG | -0.1 kcal/mol |
| GGGGACACGTGATGAG | 0.11 kcal/mol |

| Sequence | relative binding free energy |
| --- | --- |
| TTTGACACGTGGCTGT | -0.15 kcal/mol |
| GGTCACACGTGATGTA | 0.29 kcal/mol |
| AGTGGCACGTGAATGC | 0.16 kcal/mol |
| AGGGCCACGTGTGTAT | -0.05 kcal/mol |
| GTCGGCACGTGTCATT | 0.13 kcal/mol |
| CTGTGCACGTGCGGAG | -0.19 kcal/mol |
| CTTCTCACGTGAGGGG | 0.34 kcal/mol |
| ACAGGCACGTGTTGAG | -0.03 kcal/mol |
| CAGGTCACGTGGATTT | 0.28 kcal/mol |
| AGCTTCACGTGAGGGT | 0.29 kcal/mol |
| CGTTGCACGTGGTGGC | -0.17 kcal/mol |
| AGAAGCACGTGGTGTT | -0.27 kcal/mol |
| GATTGCACGTGAGGCT | 0.13 kcal/mol |
| AAAGGCACGTGTGGTC | -0.15 kcal/mol |
| GAGGGCACGTGTGAGC | 0.03 kcal/mol |
| ATTGGCACGTGGCACG | -0.21 kcal/mol |
| CGTTGCACGTGAAGTT | 0.21 kcal/mol |
| AAGTTCACGTGAAGAG | 0.44 kcal/mol |
| ACATTCACGTGGGGGT | 0.14 kcal/mol |
| TAGATCACGTGGGGGG | 0.12 kcal/mol |
| CTTTACACGTGTTTGA | 0.06 kcal/mol |

| Sequence | relative binding free energy |
| --- | --- |
| ATTGGCACGTGCGTGA | -0.27 kcal/mol |
| TGATGCACGTGTTACG | 0.01 kcal/mol |
| AGAGACACGTGGGAGT | 0.01 kcal/mol |
| GATGGCACGTGAGTGA | 0.28 kcal/mol |
| TTTAACACGTGGTCAG | -0.12 kcal/mol |
| GTTTACACGTGTGTAA | 0.05 kcal/mol |
| CTGTTCACGTGGGGAC | 0.08 kcal/mol |
| ATATTCACGTGTGTAT | 0.33 kcal/mol |
| CTGTACACGTGTCATG | 0.24 kcal/mol |
| AAGTGCACGTGTTTAA | -0.04 kcal/mol |
| TTTATCACGTGGGTTC | -0.01 kcal/mol |
| TTTACCACGTGATGAT | 0.07 kcal/mol |
| TGCAGCACGTGACGGT | 0.09 kcal/mol |
| CCTGGCACGTGGTGGT | -0.25 kcal/mol |
| GTTAACACGTGGAGTT | 0.02 kcal/mol |
| ATCTGCACGTGGGTGG | -0.1 kcal/mol |
| ATTGTCACGTGTGTCG | 0.14 kcal/mol |
| ATGTTCACGTGAATGA | 0.47 kcal/mol |
| CTTAACACGTGAGGGG | 0.17 kcal/mol |
| AGCATCACGTGGAAGG | 0.21 kcal/mol |
| TTAAACACGTGGTCTT | -0.08 kcal/mol |
